# Reference: article PMC4336329 (PLoS ONE, 2015)
# Among all 310,000 compounds or so, about 14,000 (4.5%) showed an effect of 50% or more. The effect is printed as a negative number. This is one part of the list.
# Target: human ether-à-go-go-related gene (hERG) potassium channel (human, UniProt Q12809)
# Test: primary screen, population patch clamp on CHO cells stably expressing hERG
# 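Further: peak tail current of the secondary pulse compared with the same well before compound.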
# Chain of human ether-à-go-go-related gene (hERG) potassium channel (Q12809 whole entry, looked up): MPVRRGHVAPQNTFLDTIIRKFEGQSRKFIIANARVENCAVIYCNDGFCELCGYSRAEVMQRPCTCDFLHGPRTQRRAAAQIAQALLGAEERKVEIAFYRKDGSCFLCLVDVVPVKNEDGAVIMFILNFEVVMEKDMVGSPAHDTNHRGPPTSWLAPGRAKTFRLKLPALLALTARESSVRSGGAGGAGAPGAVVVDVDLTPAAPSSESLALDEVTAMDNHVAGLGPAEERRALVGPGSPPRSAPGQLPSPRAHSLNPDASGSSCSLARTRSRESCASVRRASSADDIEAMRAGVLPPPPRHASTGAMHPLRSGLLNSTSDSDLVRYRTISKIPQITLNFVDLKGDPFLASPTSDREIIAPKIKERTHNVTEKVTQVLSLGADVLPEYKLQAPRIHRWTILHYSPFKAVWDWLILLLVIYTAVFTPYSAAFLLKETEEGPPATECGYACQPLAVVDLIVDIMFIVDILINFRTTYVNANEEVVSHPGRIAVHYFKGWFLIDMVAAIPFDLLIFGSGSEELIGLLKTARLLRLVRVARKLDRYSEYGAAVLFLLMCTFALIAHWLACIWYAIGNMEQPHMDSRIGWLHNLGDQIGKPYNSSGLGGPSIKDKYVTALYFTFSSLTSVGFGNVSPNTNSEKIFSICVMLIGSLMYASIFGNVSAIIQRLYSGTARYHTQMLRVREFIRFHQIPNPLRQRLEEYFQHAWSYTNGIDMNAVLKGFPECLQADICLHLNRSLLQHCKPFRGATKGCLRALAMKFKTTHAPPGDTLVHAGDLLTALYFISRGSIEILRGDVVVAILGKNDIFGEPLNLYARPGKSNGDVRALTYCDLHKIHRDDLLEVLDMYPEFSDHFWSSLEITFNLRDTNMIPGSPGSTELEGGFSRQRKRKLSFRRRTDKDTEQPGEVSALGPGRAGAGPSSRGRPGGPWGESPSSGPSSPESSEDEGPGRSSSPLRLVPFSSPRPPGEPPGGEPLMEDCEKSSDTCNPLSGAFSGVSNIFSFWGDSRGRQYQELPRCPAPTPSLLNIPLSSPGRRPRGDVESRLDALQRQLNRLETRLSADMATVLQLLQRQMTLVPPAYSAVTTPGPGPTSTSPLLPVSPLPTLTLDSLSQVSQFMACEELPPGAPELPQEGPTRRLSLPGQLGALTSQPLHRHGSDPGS
row,Structure (SMILES),"hERG current change (%, negative = inhibition) at 10uM [%]"
1,C/C(=N\NC(=O)c1c(Br)c(C)nn1C)c1ccc(NC(=O)C(C)Oc2ccc(Cl)cc2C)cc1 (centres unmarked),-3.11
2,O=C(O)CSc1cccc[n+]1[O-],-11.1
3,Cc1ccc2nc(C)c3c(c2c1)OC(C(C)(Cl)Br)C3 (centres unmarked),-16.5
4,CCOC(=O)c1cc2c(C)nn(-c3ccccc3)c2s1,-0.348
5,Cc1ccccc1N1CCN(Cc2nc(Cc3ccccc3)no2)CC1,9.18
6,COc1ccc2nc(NC(=O)CS(=O)(=O)Cc3ccccc3)sc2c1,23.2
7,CCC(C)NS(=O)(=O)c1ccc(OCC(=O)N2CCC(C)CC2)cc1 (centres unmarked),-5.19
8,COC(=O)CCC(=O)OC1(C)C(=O)C2=CN(CCCOC(C)C)C(c3ccc(OC)cc3)=CC2=C(Br)C1=O (centres unmarked),-22.7
9,CCn1c(=NC(=O)c2ccc(S(=O)(=O)N3CCOCC3)cc2)sc2cccc(OC)c21,5.72
10,CC12C=CC3(O1)C(C(=O)N1CCCOC13)C2C(=O)O (centres unmarked),-2.54
11,CCOC(=O)c1sc(NC(=O)c2ccccc2OC)nc1C,24.2
12,CS/C(=N\S(=O)(=O)c1cccs1)Nc1ccc(F)cc1,-21.6
13,Cc1ccc(S(=O)(=O)c2cc3cc(Br)ccc3oc2=O)cc1,-3.16
14,CC(C)Cn1c(-c2ccccc2F)n[nH]c1=S,4.43
15,COC(=O)c1cn(NC(=O)CCC2CCCC2)c(=O)c2ccccc12,-10
16,CCN(CC)S(=O)(=O)c1ccc(C(=O)NNC(=O)c2cccs2)cc1,-2.66
17,CC1CCCCC1NC(=O)COC(=O)CNC(=O)c1cccc(F)c1 (centres unmarked),21.9
18,CC1CCN(CCCNC(=O)c2ccc3c(Cl)c4c(nc3c2)CCCC4)CC1,-40.9
19,Cc1ccccc1NC(=S)N1CCC(C(=O)c2ccc(F)cc2)CC1,-45
20,Cc1ccc(C(=O)N(C)Cc2ccc(N3CCOCC3)cc2)cc1S(=O)(=O)NCc1ccccc1,-55.6
21,COc1ccc(C(CNC(=O)Cn2c(=O)oc3ccccc32)N(C)C)cc1 (centres unmarked),8.59
22,COc1ccc(S(=O)(=O)N2CCCCCC2)cc1C(=O)N(C)CCOc1ccc(Cl)cc1,-47.7
23,COc1ccc(/C(N)=N/OC(=O)CCc2ccccc2)cc1,12.4

row,Structure (SMILES),"hERG current change (%, negative = inhibition) at 10uM [%]"
1,CC(C)CCn1c(COc2ccccc2)nn(CCC#N)c1=S,7.59
2,COc1ccc(NC(=O)C2CCN(C(=O)NCc3ccccc3)CC2)cc1,-7.59
3,COc1ccc(-n2nc(C(=O)NCC(=O)N3CCC(C)CC3)c3ccccc3c2=O)cc1,0.344
4,CCOC(=O)CSc1nc2sc(C)c(C)c2c(=O)n1C,-0.412
5,CCC(=O)N1N=C(c2ccc(Cl)cc2)CC1c1ccco1 (centres unmarked),0.74
6,CC(C)CNC(=O)c1cccc(NC(=O)c2ccco2)c1,-3.01
7,COCCn1cnc2c(c1=O)c1nc3ccccc3nc1n2/N=C/c1ccc(OC)c(OC)c1,-13.4
8,CCOc1ccc(NC(=O)CSc2ncn[nH]2)cc1,6.81
9,CC1CCC(NC(=O)CSc2nnnn2C)CC1 (centres unmarked),6.96
10,CC(=O)N/C(=C/c1ccc(Cl)cc1)C(=O)NCCc1c[nH]c2ccccc12,-20.8
11,CCCCC(=O)Nc1nc2c(OC)cc([N+](=O)[O-])cc2s1,9.98
12,CCCOc1ccc(N2CC(C(=O)NC(C)C)CC2=O)cc1 (centres unmarked),8.32
13,CC(C)(C)c1cc(NCc2ccccn2)n2ncc(-c3ccc(Cl)cc3)c2n1,20.1
14,COc1cc2[nH]c(-c3cccc(F)c3)cc(=O)c2cc1OC,21.5
15,C/C=C/c1ccc(OCC(O)CN(C)Cc2ccc(SC)cc2)c(OC)c1.O=C(O)C(=O)O (centres unmarked),-71.2
16,Cc1ccc(Cl)cc1N1CCN(S(=O)(=O)c2c(C(=O)N3CCOCC3)c(C)n(C)c2C)CC1,-11
17,CCc1ccc(/C=C2/C(=O)N(c3ccccc3)C(=S)N2CC(=O)OC)s1,7.72
18,COC(=O)CN(c1ccccc1)S(=O)(=O)c1ccccc1,4.04
19,CCNc1nc2nc3ccc(C)cn3c(=O)c2cc1C(=O)NCC1CCCO1 (centres unmarked),-70.6
20,Cc1ccccc1NC1=NCC(c2ccc([N+](=O)[O-])cc2)S1 (centres unmarked),-44.9
21,CCn1c(SCC(=O)N2CCCc3ccccc32)nnc1-c1ccoc1C,-8.22
22,COC(=O)CSc1ccsc1C(=O)O,5.72
23,COc1cc(CNc2nc(C)c([N+](=O)[O-])c(C)c2C#N)cc(OC)c1,10.8

row,Structure (SMILES),"hERG current change (%, negative = inhibition) at 10uM [%]"
1,Fc1ccccc1-c1nc(N2CCCCC2)c2ccccc2n1,-1.61
2,O=C(COc1cccc2cccnc12)NCC(F)(F)F,7.06
3,COc1ccc(NC(=O)CCCC2CCCCC2)c(OC)c1,11.2
4,CCCN(CC(=O)Nc1ccccc1OC)C(=O)c1ccncc1,14
5,O=C(CN1C(=O)NC2(CCCCC2)C1=O)NNC(=O)C1CC1,-1.21
6,CNC(=O)CSc1nnc(-c2cccs2)o1,1.75
7,COC(=O)c1[nH]c2ccccc2c1NC(=O)c1ccccc1[N+](=O)[O-],5.24
8,COc1ccc([C@H]2/C=C\CN(C(=O)C3CC3)[C@@H](C)C(=O)N2Cc2ccc(F)cc2)cc1,-34.8
9,COc1ccc(CNC(=O)C(C)N2CCN(S(=O)(=O)c3ccccc3F)CC2)cc1 (centres unmarked),-15.9
10,CCOc1ccccc1NC(=O)CSc1nnnn1C1CCCC1,-17.4
11,O=C(Nc1ccc(F)cc1)c1cccc2c1C(=O)N(Cc1ccccn1)C2,-27.6
12,Cc1cccc(C)c1-n1ncc(C(=O)NC2CCCC2)c1C1CCNCC1,18.9
13,CCOc1ccc(NC(=O)CN(C)c2ccc(S(=O)(=O)N(C(C)C)C(C)C)cn2)cc1OCC,5.89
14,CCOC(=O)c1cccc(N2C(=O)c3ccccc3S2(=O)=O)c1,-59.5
15,O=C(NCc1cccnc1)NC1(c2ccccc2)CC1,11.5
16,O=c1c2ccccc2nc(SCC2CCCCO2)n1-c1ccccc1 (centres unmarked),6.19
17,O=C(CSc1nnc(Cc2ccccc2)o1)NCCc1ccccc1,-3.81
18,COc1ccc(C(=O)Cn2cnc3ccc(Cl)cc3c2=O)cc1F,-7.44
19,O=C(c1cccc(Oc2ccc([N+](=O)[O-])cc2Cl)c1)N1CCOCC1,-36.6
20,COc1cccc(CNC(=O)Nc2cccs2)c1,11
21,CCOC(=O)CNC(=O)CSc1ncnc2c1cnn2-c1ccccc1,-7.28
22,COC(=O)c1ccc(/C=N\N2CCN(c3ccccc3)CC2)cc1,27.8
23,CCOc1cc2c(cc1OCC)-n1cccc1C(c1ccc(F)cc1)NC2.Cl (centres unmarked),0.0384

row,Structure (SMILES),"hERG current change (%, negative = inhibition) at 10uM [%]"
1,COc1ccccc1C(=O)NC(=O)CSc1nnc(SC)s1,1.36
2,COc1cccc(COC(=O)C2CCN(C(=O)c3ccc(F)cc3)CC2)c1OC,5.09
3,FC(F)(F)c1n[nH]c(=S)n1/N=C/c1ccco1,5.55
4,CN(CCC#N)C(=O)CSc1ncnc2sc(-c3ccccc3)cc12,-28.6
5,COc1cccc(C(=O)COC(=O)c2ccc(NC(C)=O)cc2)c1,7.01
6,CCS(=O)(=O)Nc1cc(-c2nc3cccnc3s2)ccc1C,5.66
7,S=c1[nH]nc(CN2CCCC2)n1Cc1ccccc1,-8.32
8,CC(=O)c1c(C)[nH]c(C(=O)CN2C(=O)NC(C)(c3ccc(C)cc3)C2=O)c1C (centres unmarked),20.8
9,CCOC(=O)C1(CCOc2ccccc2)CCN(S(=O)(=O)N(C)C)CC1,-1.79
10,O=C(CCN1C(=O)c2ccccc2S1(=O)=O)N1CCN(c2ccc(F)cc2)CC1,-61.9
11,O=C(NCCCn1ccnc1)c1ccc(N2CCCCC2)c([N+](=O)[O-])c1,-71.7
12,CCOc1ccc([C@@H]2CC=C(C(=O)O)[C@H](c3cccc(Cl)c3)N2S(=O)(=O)c2ccc(C)cc2)cc1,3.82
13,CC(C)CN(C(=O)CC1OC(=O)c2ccccc21)c1c(N)n(Cc2ccccc2)c(=O)[nH]c1=O (centres unmarked),-8.49
14,CCCOc1ccc(NC(=O)CC2C(=O)N(CC)C(=S)N2CCNC(C)=O)cc1 (centres unmarked),-11.5
15,CN(C)/C=C1\SC(=S)N(c2ccc(F)cc2)C1=O,4.89
16,Cc1ncsc1CCC(=O)N1CCCC(C(=O)c2ccc3c(c2)OCO3)C1 (centres unmarked),-19.2
17,CN1CCN(C(=O)c2ccc3c(c2)N(Cc2cccc(Cl)c2)C(=O)c2ccccc2S3(=O)=O)CC1,10.8
18,N#Cc1ccc(OCC(=O)Nc2ccc3[nH]c(=O)[nH]c3c2)cc1,-4.57
19,Cc1ccc(-c2cc(C(=O)NC3CCCCC3)no2)cc1,28.1
20,CCCCc1c(O)nc2sc3cc(OC)ccc3n2c1=O,12.8
